Reference: ChEMBL document CHEMBL1201862, “PubChem BioAssay data set” (2004)
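96-well plates; 48 h exposure; 5 concentrations. Endpoints by linear interpolation between flanking doses. Not reached: highest tested concentration assigned. At the GI50, growth is halved.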 Calls of active or inactive are those of the source. Cut-off read from the data, not from the text of the source: active = GI50 up to about 1.1 µM and inactive = higher.

What follows are molecules tested on NCI-H322M (assay: DTP human tumour cell line panel, 48 h).
In the case of `COc1cc(/C=N/NC(=O)c2ccc(NC(C)=O)cc2OC)ccc1O`, the GI50 is reported as inactive: 38.7 µM. For `COC(=O)[C@@H](O)[C@](O)(CCC(C)C)C(=O)O[C@@H]1C(OC)=C[C@]23CCCN2CCc2cc4c(cc2[C@H]13)OCO4`, the GI50 was inactive: 2.96 µM. For `CCOc1ccc(/N=N/c2ccc(-c3ccc(/N=N/c4c(O)ccc5cc(S(=O)(=O)O)cc(S(=O)(=O)O)c45)cc3)cc2)cc1`, the GI50 was inactive: > 100 µM. For `N=C1NC(=O)N2CC12` (stereo unspecified) [IMEXON], the GI50 was inactive: > 100 µM. In the case of `CN(CCCCN1CCCC1)CCCN(C)C(=O)Cc1ccc(Cl)c(Cl)c1`, the GI50 is reported as inactive: 16.4 µM. With `C=C1C(=O)O[C@@H]2[C@H]1CC[C@H](C)[C@]1(O)CCC(=O)[C@@]21C` [CORONOPILIN] the GI50 was inactive: > 10 µM. With `O=C1CC(c2ccc(Cl)cc2)=Nc2ccccc2N1` the GI50 was inactive: 44.2 µM. In the case of `FC(F)(F)c1ccc2nc(NCc3ccccc3)c(-c3ccccc3)nc2c1`, the GI50 is reported as inactive: 51.4 µM. `COC(=O)[C@]1(C)CCC[C@]2(C)[C@H]3CC[C@]4(C(C)C)OO[C@@H](O4)[C@]34O[C@@H]4C[C@H]21` was tested, and the GI50 was inactive: 14.6 µM. `CC#CCCCC1(C)CCNC1=S` (stereo unspecified) was tested, and the GI50 was inactive: > 10 µM. In the case of `C/C(=N/CC(=O)O)c1ccccc1`, the GI50 is reported as inactive: > 100 µM. For `O=C(O)Cc1ccc(Oc2nc3ccccc3nc2-c2cccs2)cc1`, the GI50 was inactive: 78.9 µM. For `COc1cc2c(cc1OC)[C@]1(O)C(=O)c3ccc4c(c3O[C@@H]1CO2)C[C@H](C(C)(C)O)O4`, the GI50 was inactive: 8.89 µM. With `COc1ccc(C(c2ccc(C(C)C)cc(=O)c2O)c2c(O)cc3oc(-c4ccccc4)cc(=O)c3c2O)cc1` (stereo unspecified) the GI50 was inactive: 18.4 µM. For `COc1cc(O)c2c(=O)c3c(C)cccc3n(C)c2c1`, the GI50 was inactive: > 10 µM. `COC(=O)c1c/c(=N\NC(=O)CC(=O)Nc2ccccc2OC)c2ccccc2o1` was tested, and the GI50 was inactive: > 100 µM. With `COC(=O)[C@@H]1CS(=O)(=O)C(C(C)C)N1C(C)=O` (stereo partly specified) the GI50 was inactive: > 100 µM. With `Cc1ccc(C)c(NC(=O)C(=O)CC(=O)c2cccc3ccccc23)c1` the GI50 was inactive: > 100 µM. In the case of `Cn1cc(C(=O)c2ccccc2)c2ccccc2c1=O`, the GI50 is reported as inactive: > 100 µM. With `O=[N+]([O-])c1cc(C(F)(F)F)cc([N+](=O)[O-])c1CCl` the GI50 was inactive: 5.51 µM. In the case of `N#CC1(C=O)c2ccccc2C=CN1C(=O)c1ccccc1` (stereo unspecified), the GI50 is reported as inactive: 70.5 µM. For `O=C1C(Cl)=CC2(C=C1Cl)CCNC1=C2C(=O)c2nc[nH]c2C1=O`, the GI50 was inactive: 46.7 µM. With `O=c1cc2ccccc2nn1Cc1ccccc1Cl` the GI50 was inactive: 56.5 µM. For `CC(C)(CCc1nc2ccccc2[nH]1)C(=O)O`, the GI50 was inactive: > 100 µM. In the case of `COc1ccc(CC(=O)NCCc2ccc(OC)c(OC)c2)cc1Br`, the GI50 is reported as inactive: > 100 µM. With `C=C(Cl)C(Br)(CCl)CCC(Br)C(C)(C)Cl` (stereo unspecified) the GI50 was inactive: 7.53 µM. `CC1(C)Cc2c(sc3[nH]c(=S)[nH]c(=S)c23)CS1` was tested, and the GI50 was inactive: 46 µM. `Cc1ccc2[nH]c3c(c2c1)CCC/C3=N/N=C(N)N` was tested, and the GI50 was inactive: 1.69 µM. For `CCOC(=O)C(NC(=O)CC(C)C)(NC(C)C)C(F)(F)F` (stereo unspecified), the GI50 was inactive: > 100 µM. With `O=C1C(Br)=CC2(C=C1Br)CCNC1=C2C(=O)c2cccnc2C1=O` the GI50 was inactive: 19.4 µM. With `CC(CNC(=O)c1ccccc1)(CNC(=O)c1ccccc1)[N+](=O)[O-]` the GI50 was inactive: > 100 µM. For `O=C(O)CCCSc1ccccc1`, the GI50 was inactive: > 100 µM. `O=C1NCCN1/N=C/c1c(Cl)n(-c2ccccc2)c2ccccc12` was tested, and the GI50 was inactive: 17.2 µM. With `NC(CP(=O)(O)O)C(=O)O` (stereo unspecified) the GI50 was inactive: > 100 µM. For `O=C1C=C2SC3C[C@@]24CC1(O)[N+]1=c2c4c(c(O)c4c2=C(C=N4)CC1)N3`, the GI50 was inactive: 1.52 µM. `COc1cc(/C=C/C(=O)OC[C@H](Br)[C@H](OC(C)=O)c2ccc3c(c2)OCO3)cc(OC)c1OC` was tested, and the GI50 was inactive: > 100 µM. For `CCCN(CCC)C(=O)c1nc(N)nc(-c2ccc(OC)cc2)c1-c1ccc(OC)cc1`, the GI50 was inactive: > 100 µM. For `CSc1sc(=S)sc1SC`, the GI50 was inactive: > 100 µM. With `CC(C)C(Br)C(=O)NCC(=O)O` (stereo unspecified) the GI50 was inactive: > 100 µM. With `Nc1nc(CCC(=O)Nc2cccc(C(F)(F)F)c2)cc(-c2cccc3ccccc23)n1` the GI50 was inactive: > 100 µM. With `Cc1ccc(Nc2nc3ccccc3c(=O)n2N)cc1` the GI50 was inactive: > 100 µM. `O=C(NCCCNCCCNC(=O)c1cc(-c2ccccc2)nc2ccccc12)c1cc(-c2ccccc2)nc2ccccc12` was tested, and the GI50 was inactive: 2.25 µM. `CCCCCC(=O)N[C@@H](c1ccco1)[C@@H](O)C(=O)O[C@H]1C[C@@]2(O)[C@@H](OC(=O)c3ccccc3)[C@@H]3[C@]4(OC(C)=O)CO[C@@H]4C[C@H](O)[C@@]3(C)C(=O)[C@H](OC(C)=O)C(=C1C)C2(C)C` was tested, and the GI50 was inactive: 16.9 µM. With `C=CC(C)CCC(C/C=C(\C)CCC=C(C)C)C(=C)CCCC(C)C` (stereo unspecified) the GI50 was inactive: > 100 µM. With `O=C1CC2c3ccccc3CCC2c2ccccc21` (stereo unspecified) the GI50 was inactive: 46.2 µM. `O=C(CCN(C(=O)O)S(=O)(=O)c1ccc(NC(=O)c2ccccc2)cc1)NC1CCCCC1` was tested, and the GI50 was inactive: > 100 µM. For `O=C(CC(c1ccccc1)c1c(O)c2ccccc2oc1=O)c1ccccc1` (stereo unspecified), the GI50 was inactive: > 100 µM. With `CCSc1nc2cccc([N+](=O)[O-])c2n1CC` the GI50 was inactive: > 100 µM. `O=C1c2cc3c(cc2CC12Cc1cc4c(cc1C2)CCC4)CCC3` was tested, and the GI50 was inactive: > 100 µM. In the case of `NNS(=O)(=O)c1ccc(/C=C2\NC(=O)NC2=O)cc1`, the GI50 is reported as inactive: > 100 µM. With `CCN(CC)CCCNc1ccc([N+](=O)[O-])c2nc3ccc(OC)cc3c(N)c12` the GI50 was inactive: 1.4 µM. For `N#CCc1nc2cc(C(F)(F)F)ccc2s1`, the GI50 was inactive: > 100 µM. With `CCn1c(C)nc([N+](=O)[O-])c1Sc1ncc[nH]1` the GI50 was inactive: > 100 µM. For `CC1OC(n2cc(F)c(=O)[nH]c2=O)CCC1=O` (stereo unspecified), the GI50 was inactive: 62.7 µM. With `COC(=O)CCC12CCC(O1)c1ccccc12` (stereo unspecified) the GI50 was inactive: > 100 µM. For `COC(=O)CC[C@@H](NC(=O)C(C)NC(=O)COC1C(O)C(COC(=O)CCCCCCCCCCNC(=O)c2ccc([N+](=O)[O-])c3[nH]c4cc(Br)ccc4c(=O)c23)OC(OCc2ccccc2)C1NC(C)=O)C(N)=O` (stereo partly specified), the GI50 was inactive: > 100 µM. For `CC(C)(C)c1cc2c(O)c(c1)COCc1cc(C(C)(C)C)cc(c1O)COCc1cc(C(C)(C)C)cc(c1O)COC2`, the GI50 was inactive: 38.5 µM. In the case of `OCCOCn1nncc1Cn1ncc2c(O)ncnc21`, the GI50 is reported as inactive: 51.5 µM. With `O=C1Nc2ccccc2/C1=N/NC(=S)Nc1ccccc1Cl` the GI50 was inactive: 5.35 µM. `CCOc1cc[n+]([C-](C#N)C#N)cc1` was tested, and the GI50 was inactive: > 100 µM. In the case of `CN(C)CCCNC(=S)S`, the GI50 is reported as inactive: > 100 µM. For `O=C(Nc1ccc(Cl)c(Cl)c1)C1C(=O)N(c2ccc(Cl)c(Cl)c2)C(=O)/C1=N\O` (stereo unspecified), the GI50 was inactive: > 100 µM. With `CS(=O)(=O)C[S+]([O-])C[S+]([O-])C[S+]([O-])CC(NC(=O)CCC(N)C(=O)O)C(=O)O` (stereo unspecified) the GI50 was inactive: > 100 µM. For `COc1ccc(Cc2c3cc(OC)c(OC)cc3cc[n+]2C)cc1`, the GI50 was inactive: > 20.3 µM. With `Cc1cccc(C)c1N1C(=O)C(=O)C(c2nc3ccccc3s2)/C(=N\N)C1=O` (stereo unspecified) the GI50 was inactive: > 100 µM. In the case of `CC1(C)CN=C(Nc2ccc(F)c(Cl)c2)S1`, the GI50 is reported as inactive: > 100 µM.
